Laboratory results published in PMC12136788.
Some of the results follow.

T1: UNK ZnF1-6 (called full-length) (human, UniProt Q9C0B0 30-357)
T1 sequence: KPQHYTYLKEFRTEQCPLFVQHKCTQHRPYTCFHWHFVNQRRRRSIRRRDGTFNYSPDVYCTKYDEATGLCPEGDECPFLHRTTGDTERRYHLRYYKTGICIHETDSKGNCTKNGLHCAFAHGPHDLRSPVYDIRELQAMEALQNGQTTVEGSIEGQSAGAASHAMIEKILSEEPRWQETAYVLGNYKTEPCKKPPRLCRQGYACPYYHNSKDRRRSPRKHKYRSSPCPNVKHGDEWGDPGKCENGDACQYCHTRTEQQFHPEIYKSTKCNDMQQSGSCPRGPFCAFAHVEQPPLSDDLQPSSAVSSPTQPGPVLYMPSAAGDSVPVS

B1: chr3:11557766:11557867:-|3pUTR|ENSG00000144560|msi1|total|mutant (ssRNA)
RNA: GGGAGUUCUACAGUCCGACGAUCCUGGACUGCAGACUCUACCAAUCACGGGCAUUUUAUCUUCUCUGAACACUGCAGUUUGUCCGACCCGAGCUGAGGUUGGAGGAUUCCACCGUGCUUUAAACGUGAUGCAUGUUUUAAUGGCAACAGAGGAUUGAGCAUCA
B2: chr3:66380370:66380471:-|CDS|ENSG00000144749|msi1|FALSE|unique (ssRNA)
RNA: GGGAGUUCUACAGUCCGACGAUCCGGUCAAGUGGGGGUCUGACAGGUUCGUUCUUUCCUUGUAGGGGAUUCUUCCUGGACUUUAGCAAGGUUGUAUCACCCGGACUCCACAGAGCUACAGCCUGCAUCUUCAUUAACUUCAGGCAACAGAGGAUUGAGCAUCA
B3: chr12:108645191:108645284:-|3pUTR|ENSG00000110880|msi1_unk|total|mutant (ssRNA)
RNA: GGGAGUUCUACAGUCCGACGAUCUCUUUUUUUUUUUUUUUUUUUAAGCCAUGACAUCCCAGAAGAGGACAGUGAAUUACUCCCCGGUCGGCUCUUACCGAGUGGCCACCGUGUUCUGUCAAAACACUUGCUUCCAUUUUCAGACAACAGAGGAUUGAGCAUCA
B4: chr3:51403142:51403395:-|CDS|ENSG00000145041|control|control|control (ssRNA)
RNA: GGGAGUUCUACAGUCCGACGAUCCGCAGGGGAAGAUGGGGACAAUGACUUCUCUCCCUCUGAUGAGGAGCUAGCAAACCUUCUAGAGGAGGGAGAGGACGGGGAGGAUGAAGACUCUGAUGCAGAUGAGGAGGUGGAACUGAUCAACAGAGGAUUGAGCAUCA
B5: chr15:69268886:69268987:+|CDS|ENSG00000138604|unk|total|mutant (ssRNA)
RNA: GGGAGUUCUACAGUCCGACGAUCGGAGUUAAAGCUGUGUUUAUGAAUAAACAUGACUGGUAUGAAGAAUAUCCAACCACACCCCGCUCUUUUGUUUUAAAUGGCUUUAUGUAUUCUUUAAUUGGGCUGUAUGACUUAAAAGAACAACAGAGGAUUGAGCAUCA
B6: chr11:43342853:43342954:+|3pUTR|ENSG00000166181|msi1|FALSE|unique (ssRNA)
RNA: GGGAGUUCUACAGUCCGACGAUCCUAGUUCUGCUGAUAAAGAUCAUCAGUUUUGAAAGGUUACUGAUUUUCCUCUUCCCUCUUAGUUUUUUACCCAAUAUAUGGAGAAGAGUAAUGGUCAAUCUUAACAUUUUGUUUUAAUUGCAACAGAGGAUUGAGCAUCA
B7: chr5:171410733:171410822:+|3pUTR|ENSG00000181163|msi1_unk|FALSE|overlapping (ssRNA)
RNA: GGGAGUUCUACAGUCCGACGAUCGUUUUUAAAGAUGGAACUCCACCCUUUGCUUGGUUUUAAGUAUGUAUGGAAUGUUAUGAUAGGACAUAGUAGUAGCGGUGGUCAGACAUGGAAAUGGUGGGGAGACAAAAAUAUACAUGUCAACAGAGGAUUGAGCAUCA
B8: chr11:2928445:2928542:-|3pUTR|ENSG00000181649|msi1_unk|FALSE|overlapping (ssRNA)
RNA: GGGAGUUCUACAGUCCGACGAUCAUUGGACUAUCUAAUAUCUAUGUAUUUAUUUCGCUGGUUCUUUGUAGUCACAUAUUUUAUAGUCUUAAUAUCUUGUUUUUGCAUCACUGUGCCCAUUGCAAAUAAAUCACUUGGCCAGUUCAACAGAGGAUUGAGCAUCA
B9: ENSG00000198589:be:win_8701|3pUTR|ENSG00000198589|bound_else_gene|NA|bound_elsewhere_windowed (ssRNA)
RNA: GGGAGUUCUACAGUCCGACGAUCUGUAGUCUUUGCUUGACUUUUUUGGGGGGGAUUAGCAAAGCAGAAAACUGGCUGCUGGGUUCUGUAGUUUUAAAAAAUCUAUAUUUUUAGUCAUAAUGAGAAGUCUAUUUUCACCAAUUACAACAGAGGAUUGAGCAUCA
B10: chr15:41696124:41696239:+|CDS|ENSG00000174197|unk|total|mutant (ssRNA)
RNA: GGGAGUUCUACAGUCCGACGAUCUGCCGCCUCACCGUCCGACCAGAACGGAAGCUUCAAUGUUGUUAUUAAAGAGGAACCUCCCGAUGAUUAUGACUACGAACUUGGUGAGUGCCCAGAAGGGGUCACUGUGAAACAGGAAGACAACAGAGGAUUGAGCAUCA
B11: chr3:57561443:57561544:+|3pUTR|ENSG00000174840|unk|FALSE|unique (ssRNA)
RNA: GGGAGUUCUACAGUCCGACGAUCGAAAUUUAAAUAUGAAGCCAAACUUUUUAAAAUUAGAAACUACAAAUGGUUAUACUGAUUAGUGUCUAGCCUAGAGUGGUAACCAUGCUUUACUAAUUCAGUUAUGAAAUACAUUAUUUACAACAGAGGAUUGAGCAUCA
B12: chr21:42918526:42919006:-|CDS|ENSG00000233056|control|control|control (ssRNA)
RNA: GGGAGUUCUACAGUCCGACGAUCAAUUGGACAAUGGGGAGUAAACACUCAGGUGCUUGAGGACAUAAAGAGAGAACAGAUUAUAGCCAAAGCCAAAGCCUCAAAACCAACAACUCCCCCUGAAAAUCGCCCGCGGCAUUUCCACAACAGAGGAUUGAGCAUCA
B13: chr12:109850944:109852737:-|three_prime_utr|ENSG00000139433|control|control|control (ssRNA)
RNA: GGGAGUUCUACAGUCCGACGAUCGCUCUCCAAGGGGCAGAAUGUUACGGAGGAGGAGUGCCUGGAGAAGAUCCGCCUCUUCCUAGUCAACUACACGGCGACCAUCGAUGUCAUCUACGAGAUGUACACCCAGAUGAACGCUGACAACAGAGGAUUGAGCAUCA
B14: chr16:88863332:88863755:-|three_prime_utr|ENSG00000205022|control|control|control (ssRNA)
RNA: GGGAGUUCUACAGUCCGACGAUCCAGAGGAGAGGGGUGUCCAGAGCAGCCACUGGCCCCCUCUUGGCGGGGGGAUGGCCCAGUAGGGCCUUGUAUGGUGGUCCAGACCCAAGGCCACAGCCACGAGUCACAGCCACGGCCCGGCAACAGAGGAUUGAGCAUCA
B15: chr1:154584646:154584747:-|3pUTR|ENSG00000160710|unk|FALSE|unique (ssRNA)
RNA: GGGAGUUCUACAGUCCGACGAUCAUGCUCCAGUGACAGAUGGAUUAGGGUGUGUCAUACUAGGGUGUGAGAGAGGUAGGUCGUAGCAUUCCUCAUCACAUGGUCAGGGGAUUUUUUUUUCUCCUUUUUUUUUCUUUUUAAGCCCAACAGAGGAUUGAGCAUCA
B16: chr6:83525322:83525423:+|3pUTR|ENSG00000146250|msi1|FALSE|unique (ssRNA)
RNA: GGGAGUUCUACAGUCCGACGAUCACAAUUACAAUGUGUAUUAUUUAAAAAUGGGAGAAAUAGUUUGUUCUAUGAAAUAAACCUAGUUUAGAAAUAGGGAAGCUGAGACAUUUUAAGAUCUCAAGUUUUUAUUUAACUAAUACUCAACAGAGGAUUGAGCAUCA
B17: chr19:10690846:10690947:+|3pUTR|ENSG00000129351|msi1|total|mutant (ssRNA)
RNA: GGGAGUUCUACAGUCCGACGAUCGAAAGAGGUGAAAGAACAAGUUGUGUGCCCGAAAACUUUUGAGGAAUUCUUAUUUGUGUCCGAGCAGAGGAGGUCCCAGAUACCAAGUGGCGCCUCCCAGGAAAGGCUGGGAGAAGAGGUCAACAGAGGAUUGAGCAUCA
B18: chr2:150470103:150470218:-|CDS|ENSG00000115963|unk|total|mutant (ssRNA)
RNA: GGGAGUUCUACAGUCCGACGAUCAUGGCCAAACAGAUUGGAGCAGCUACUUAUAUCGAAUGCUCAGCUUUACAGUCGGAAAACCGCGUCAGAGACAUUUUUCACGUUGCCACCUUGGCAUGUGUAAAUAAGACAAAUAAAAACCAACAGAGGAUUGAGCAUCA
B19: chr5:52955293:52955406:+|3pUTR|ENSG00000213949|unk|FALSE|unique (ssRNA)
RNA: GGGAGUUCUACAGUCCGACGAUCUACCAACCAGUGUGAGCUGACUUCAGCACACCACUGAGACAGAUUACACGAUAGACAGAUAGAUAGAUAGAUAGAUAGAUAGAUAGAUAGAUAGAUAGAUAGAUAUUGAUAGAGAACAUGCAACAGAGGAUUGAGCAUCA
B20: chr7:107202531:107202632:-|3pUTR|ENSG00000164597|msi1|total|mutant (ssRNA)
RNA: GGGAGUUCUACAGUCCGACGAUCUAUUCUGAGAACUCAUAAAUAAAAUUCAGCCAAGAUUAAUCAAUCAAUCAAUCAAUCAGCCGACGUCAGAGAUAAGCAACUUUUUUUUCCAUUUAUUUGAAAUAAUAUACAAGAAUACCGCAACAGAGGAUUGAGCAUCA
B21: chr19:43785873:43786072:-|three_prime_utr|ENSG00000159871|control|control|control (ssRNA)
RNA: GGGAGUUCUACAGUCCGACGAUCGAAAUGAAGAAAAAAGGAGAAAGGAGAAAAGCAUGCACUUGGAGACUAAGACCAGGAGAUAGAAACAGAGAAGCAAGACAAGGCGCAGUGGCUCACACUUGUAAUUCCAGCACCUUAGGACAACAGAGGAUUGAGCAUCA
B22: chr13:110149936:110150037:-|3pUTR|ENSG00000187498|msi1|FALSE|unique (ssRNA)
RNA: GGGAGUUCUACAGUCCGACGAUCUUCUUGUAUUAUAAUUAAUUUUCUACCCCCAGAGAUAAAUGUUUGUUUAUAUCACUGUCUAGCUGUUUCAAAAUUUAGGUCCCUUGGUCUGUACAAAUAAUAGCAAUGUAAAAAUGGUUUCAACAGAGGAUUGAGCAUCA

Biological target: T1, UNK ZnF1-6 (called full-length)
Assay: nsRBNS (natural sequence RNA bind-n-seq); RBNS binding buffer (assumed for nsRBNS): 25 mM Tris pH 7.5, 150 mM KCl, 3 mM MgCl2, 0.01% Triton X-100, 500 ug/ml BSA, 20 U/ml SUPERase-In, 4 C; UNK is unkempt and MSI1 is Musashi-1; names of the RNAs are library labels; protein concentration not given here; high values mean tight binding

Row | Binder | binding signal [enrichment R]
1 | B1 | 0.682
2 | B2 | 0.961
3 | B3 | 4.25
4 | B4 | 0.96
5 | B5 | 0.547
6 | B6 | 3.5
7 | B7 | 1.83
8 | B8 | 5.74
9 | B9 | 29
10 | B10 | 0.514
11 | B11 | 4.95
12 | B12 | 0.684
13 | B13 | 0.497
14 | B14 | 0.848
15 | B15 | 2.8
16 | B16 | 4.43
17 | B17 | 0.706
18 | B18 | 0.384
19 | B19 | 24.7
20 | B20 | 1.94
21 | B21 | 1.04
22 | B22 | 119
